# Reference: PubChem BioAssay AID463173 (ICCB-Longwood Screening Facility, Harvard Medical School, 2010)
# The whole screen tested about 52,000 compounds, of which about 1,700 (3.3%) were called active. Rule as the data show it: active = survival mostly below about 52% (no sharp cut-off); inactive = mostly above about 56%. The list shows a part of the results.
# System: Wild type
# Assay: growth inhibition of S. aureus wild type versus tarO mutant, primary screen, teichoic acid synthesis inhibitors, RN4220, OD600 (AID 463173)
# Details: S. aureus RN4220 wild type/DeltatarO growth, OD600, 18 h, hits give low values, screened at 18.75 µg/mL (by protocol)
row,Compound,survival
1,CCCCSCCCNC(=O)c1cn(CC)c2ccc(S(=O)(=O)N3CCCCCC3)cc2c1=O,inactive: 76%
2,COc1ccc(OCCn2c(C)nc3cc(C)c(C)cc32)cc1,inactive: 78%
3,CCCCOc1ccc(CNC(=O)c2cc3n(n2)CCCN(Cc2ccc(C)cc2)C3=O)cc1,inactive: 63%
4,CCCOc1ccc(C(=O)Nc2cc(-c3nc4cc(C)cc(C)c4o3)ccc2C)cc1,inactive: 64%
5,Cc1cnn(Cc2ccccc2)c1N,inactive: 108%
6,CN1C(=O)c2ccccc2Sc2ccc(NC(=O)N3CCN(c4ccccc4F)CC3)cc21,inactive: 83%
7,Clc1ccc(CCNC(c2nnc(-c3ccccc3)o2)c2ccccc2Cl)cc1 (centres undefined),active: 3%
8,CC(C)NC(=O)C1CCN(C(=O)N2CCOc3ccc(Cl)cc32)CC1,inactive: 82%
9,Cc1ccc(-c2noc(-c3ccc(N4CCCCC4)c([N+](=O)[O-])c3)n2)cc1,inactive: 82%
10,CNC(=O)COc1ccc(NC(=O)c2ccc(-c3nn(C)c(=O)c4ccccc34)cc2)cc1,inactive: 70%
11,CCn1c(SCc2ccccc2Cl)nc(=O)c2c(C(=O)OC)cc(C3CC3)nc21,inactive: 73%
12,CC1(C)Cc2ccccc2-c2nnc(SCC(=O)N3CCCCC3)n21,inactive: 102%
13,COc1cc(-c2noc(-c3cc(C(C)C)[nH]n3)n2)cc(OC)c1OC,inactive: 72%
14,Cc1cc(C)c2c(-n3cccc3)c(C(=O)NCCCN3CCCCC3C)sc2n1 (centres undefined),inactive: 92%
15,Cc1nn(S(=O)(=O)c2ccc(Cl)cc2)c(C)c1S(=O)(=O)N1CCCCCC1,inactive: 63%
16,CC(=O)Nc1nonc1-c1nnc(SCc2ccc(Cl)cc2)n1C,inactive: 76%
17,CCOC(=O)c1c(NC(=O)c2cc(=O)c3c(C)cc(C)cc3o2)sc(C(C)=O)c1C,inactive: 88%
18,CCc1ccc(-n2c(-c3ccccc3)c(C)n3c4c(=O)n(C)c(=O)n(C)c4nc23)cc1,inactive: 126%
19,Oc1ccccc1C1=Nc2ccccc2N=C(c2ccco2)C1,inactive: 111%
20,COc1cccc(N2C(=O)N(CC(=O)NCc3cccc(OC)c3OC)c3ccccc3S2(=O)=O)c1,inactive: 78%
21,Cc1cc(=O)c2cc(C(=O)Nc3ccccc3)ccc2[nH]1,inactive: 82%
22,Cc1ccc2cccc(NC(=O)c3ccc(-c4ccc(Br)cc4)o3)c2n1,inactive: 68%
23,COc1cccc(C2C(C(=O)Nc3ccccc3OC)=C(C)Nc3nc4ccccc4n32)c1 (centres undefined),inactive: 93%

row,Compound,survival
1,CCc1ccccc1Nc1ncnc2c1nc1n2CCCC1,inactive: 71%
2,NS(=O)(=O)c1ccc(CCNC(=O)c2nc(SCc3ccccc3F)ncc2Cl)cc1,inactive: 83%
3,COc1ccc2oc(=O)c(C(=O)NCCc3c(C)[nH]c4ccc(Br)cc34)cc2c1,inactive: 70%
4,O=C(CSc1nnc(CNC(=O)c2ccccc2)n1-c1cccc(Cl)c1)Nc1ccccc1F,inactive: 98%
5,OC(CC#CCN1CCOCC1)(c1ccccc1)c1ccccc1,inactive: 105%
6,COc1ccccc1N1CCN(C(=O)CCS(=O)(=O)c2cc(Br)cc3c2N(C(=O)C2CC2)CC3)CC1,inactive: 84%
7,CCOC(=O)c1c(C)oc2nc(C)nc(N3CCN(c4ccccc4)CC3)c12,inactive: 68%
8,O=C(Nc1ccc(F)cc1)c1cccn1-c1nnc(N2CCCCC2)s1,inactive: 80%
9,Cc1ccc(-c2csc(/C(C#N)=C/c3ccccc3Cl)n2)cc1,inactive: 23%
10,CCCNC(=O)c1cnc2sc(N3CCCCC3)nn2c1=O,inactive: 73%
11,NNC(=O)C(NC(=O)c1ccccc1)c1n[nH]c(=O)c2ccccc12 (centres undefined),inactive: 106%
12,Cc1cn2c(=O)cc(COc3ccccc3NC(=O)c3ccccc3C)nc2s1,inactive: 82%
13,O=C1/C(=C\c2cccnc2)SC(=S)N1C1CCS(=O)(=O)C1 (centres undefined),inactive: 105%
14,O=C(NCc1cccc(F)c1)C1CCN(C(=O)c2sccc2-n2cccc2)CC1,inactive: 126%
15,O=C(Nc1cc(NC(=O)c2ccccc2Cl)ccc1Cl)c1ccccc1,inactive: 71%
16,CCOc1ccccc1CNC(=O)c1ccc2nc(Cc3ccc(OC)cc3)oc2c1,inactive: 72%
17,CCOCCCNC(=O)NC(CCC(C)C)c1c(-n2cccc2)sc2c1CCN(C)C2 (centres undefined),inactive: 128%
18,CCc1ccc(NC(=O)CSc2cn(CC(=O)N3CCCC3)c3ccccc23)cc1,inactive: 105%
19,CCOc1ccccc1NC(=O)N1CCCC(c2nc3c(nnn3Cc3ccc(C)cc3)c(=O)[nH]2)C1 (centres undefined),inactive: 102%
20,COc1ccc(N2CCN(C(=O)CCNS(=O)(=O)c3ccc4c(c3)CCN4C(=O)C3CC3)CC2)cc1,inactive: 84%
21,COc1ccc(CNC(=O)c2ccc(Cn3c(=O)c4cccn4c4cccnc43)cc2)cc1OC,inactive: 91%
22,O=C(c1ccc(F)cc1)C1CCN(S(=O)(=O)c2ccc(F)cc2)CC1,inactive: 102%
23,O=c1c2sc3ccccc3c2n(Cc2cccc(C(F)(F)F)c2)c(=O)n1Cc1ccco1,inactive: 81%

row,Compound,survival
1,Cc1ccc(OCC(=O)Nc2ccc(S(=O)(=O)Nc3ncccn3)cc2)c(C(C)(C)C)c1,inactive: 64%
2,CN1CCN(CCCNC(=O)c2cnn(-c3ccccc3)c2-n2cccc2)CC1,inactive: 81%
3,CC(C)(C)C(=O)CSc1nc2ccsc2c(=O)n1Cc1ccccc1F,inactive: 134%
4,Cc1ccc(C)c(-c2nc(Cn3c(=O)cc(-c4ccccc4)c4c(C)nn(C)c43)c(C)o2)c1,inactive: 134%
5,O=C(NCCN1CCOCC1)c1c(Cl)cccc1Cl,inactive: 106%
6,COc1cccc(-c2nc(SCc3cc(=O)c4ccc(C)c(C)c4[nH]3)n[nH]2)c1,inactive: 97%
7,CCOc1ccc(NC(=O)Cn2cc(C(=O)c3ccc(CC)cc3)c(=O)c3cc(C)ccc32)cc1,inactive: 78%
8,CCOc1cccc(C(=O)Nc2ccc(S(=O)(=O)N(Cc3ccccc3)c3ccccc3)cc2)c1,inactive: 88%
9,CCCN(C(=O)c1nn(-c2ccc(OC)cc2)c(=O)c2c1c1ccccc1n2C)c1ccc(CC)cc1,inactive: 95%
10,COc1ccc2nc(SCC(=O)N3CCCCC3)c(C#N)cc2c1,inactive: 100%
11,Cc1ccc(Cc2c(C)nc3nc(SCC(=O)NC(C)c4ccccc4)nn3c2C)cc1 (centres undefined),inactive: 66%
12,CCOC(=O)/C(C#N)=C\c1cn(C)c2ccccc12,inactive: 101%
13,COc1ccc(NC(=O)c2csc3c2CCCCC3)cc1,inactive: 72%
14,Cc1ccc(Cc2nc3ccccc3nc2SCC(=O)NCCC(C)C)cc1,inactive: 121%
15,COc1ccc(CCN(Cc2cc3cc4c(cc3[nH]c2=O)OCO4)C(=O)c2ccncc2)cc1OC,inactive: 113%
16,CC(NC(=O)Nc1c[nH]c2ccccc2c1=O)c1ccncc1 (centres undefined),inactive: 106%
17,O=C(CSc1nc2c([nH]c3ccccc32)c(=O)n1-c1ccc(F)cc1)NCc1ccccc1,inactive: 74%
18,CCOCCCn1c(SCC(=O)Nc2ccc(C(C)C)cc2)nc2c(sc3ccccc32)c1=O,inactive: 120%
19,COc1ccc(S(=O)(=O)c2nnn(-c3cc(Cl)c(OC)cc3OC)c2C)cc1,inactive: 90%
20,COc1ccc(C(=O)NCC(c2cccnc2)N2CCc3ccccc3C2)cc1OC (centres undefined),inactive: 93%
21,COC(=O)c1cc2occc2n1Cc1nc(-c2ccccc2F)oc1C,inactive: 79%
22,Cn1c(=O)c2c(-c3ccccc3)n3c4ccccc4nc(-c4ccccc4)c3c2n(C)c1=O,inactive: 77%
23,CCn1c(=O)c2cc(C(=O)Nc3cc(F)ccc3F)sc2c2ccccc21,inactive: 101%

row,Compound,survival
1,O=C(Nc1cccc(-c2nc3cc(Cl)ccc3o2)c1)c1cc([N+](=O)[O-])ccc1N1CCOCC1,inactive: 76%
2,CC(C)C(Nc1ccc(C(F)(F)F)cn1)C(=O)O (centres undefined),inactive: 108%
3,Cc1ccc(CN2CCC(CNc3ncnc4onc(-c5ccc(F)cc5)c34)CC2)cc1,active: -4%
4,CCN1/C(=C2/SC(=S)N(C)C2=O)Sc2ccc(S(=O)(=O)C(F)(F)F)cc21,inactive: 112%
5,COc1ccc(CN2C(=O)c3oc4ccccc4c(=O)c3C2c2ccc(O)cc2)cc1 (centres undefined),inactive: 74%
6,COc1ccc(OC)c(NC(=O)CN(C)S(=O)(=O)c2ccc(C(=O)N3CCOCC3)s2)c1,inactive: 72%
7,O=C(Cn1cnc2c(oc3ccccc32)c1=O)Nc1ccccc1C(F)(F)F,inactive: 87%
8,COc1ccc(C)cc1NC(=O)N(Cc1ccc(C)o1)C1CCN(C(C)=O)CC1,active: 0%
9,Cc1ccc(-c2nnc(Nc3cccc(Cl)c3)c3ccccc23)cc1S(=O)(=O)N1CCOCC1,inactive: 104%
10,COc1ccccc1NC(=O)Cn1c(=O)n(Cc2ccccc2)c(=O)c2sc3ccccc3c21,inactive: 87%
11,Cc1cc(C)c(NC(=O)CSc2nc3ccccc3nc2N2CCCCC2)c(C)c1,inactive: 38%
12,CC1CCN(C(=O)Cn2cc(SCC(=O)NCc3ccccc3Cl)c3ccccc32)CC1,inactive: 85%
13,CCC(C(=O)Nc1cccc(Cl)c1C)n1nc(-c2ccc(C)cc2)ccc1=O (centres undefined),inactive: 86%
14,CC(C)COc1cccc(C(=O)Nc2ccc(-c3nc4ncccc4o3)cc2)c1,inactive: 91%
15,CCCc1nc2sc3c(N4CCC(C)CC4)ncnc3c2c2c1CCCC2,inactive: 75%
16,Nc1nc(C2CC(=O)OC23CCCCC3)cs1 (centres undefined),inactive: 101%
17,O=C(NCc1cccc(Cl)c1)c1cc2ccc3cccnc3c2[nH]1,inactive: 82%
18,CC(C)COc1ccc(C(=O)Nc2ccc(S(=O)(=O)Nc3ncccn3)cc2)cc1,inactive: 86%
19,Oc1ccc(Oc2ncc(Cl)cc2Cl)cc1,inactive: 118%
20,Cc1ccc(Cl)cc1NC(=O)C(C)n1nnc2sc3c(c2c1=O)CCCC3 (centres undefined),inactive: 80%
